Hit rate of the full screen: of about 310,000 compounds, about 2,200 (0.71%) showed an effect of 50% or more. Effects have a minus sign here. This is one part of the list.
target: human ether-à-go-go-related gene (hERG) potassium channel (human, UniProt Q12809); assay: primary screen, population patch clamp on CHO cells stably expressing hERG
Sequence (Q12809 whole entry, looked up): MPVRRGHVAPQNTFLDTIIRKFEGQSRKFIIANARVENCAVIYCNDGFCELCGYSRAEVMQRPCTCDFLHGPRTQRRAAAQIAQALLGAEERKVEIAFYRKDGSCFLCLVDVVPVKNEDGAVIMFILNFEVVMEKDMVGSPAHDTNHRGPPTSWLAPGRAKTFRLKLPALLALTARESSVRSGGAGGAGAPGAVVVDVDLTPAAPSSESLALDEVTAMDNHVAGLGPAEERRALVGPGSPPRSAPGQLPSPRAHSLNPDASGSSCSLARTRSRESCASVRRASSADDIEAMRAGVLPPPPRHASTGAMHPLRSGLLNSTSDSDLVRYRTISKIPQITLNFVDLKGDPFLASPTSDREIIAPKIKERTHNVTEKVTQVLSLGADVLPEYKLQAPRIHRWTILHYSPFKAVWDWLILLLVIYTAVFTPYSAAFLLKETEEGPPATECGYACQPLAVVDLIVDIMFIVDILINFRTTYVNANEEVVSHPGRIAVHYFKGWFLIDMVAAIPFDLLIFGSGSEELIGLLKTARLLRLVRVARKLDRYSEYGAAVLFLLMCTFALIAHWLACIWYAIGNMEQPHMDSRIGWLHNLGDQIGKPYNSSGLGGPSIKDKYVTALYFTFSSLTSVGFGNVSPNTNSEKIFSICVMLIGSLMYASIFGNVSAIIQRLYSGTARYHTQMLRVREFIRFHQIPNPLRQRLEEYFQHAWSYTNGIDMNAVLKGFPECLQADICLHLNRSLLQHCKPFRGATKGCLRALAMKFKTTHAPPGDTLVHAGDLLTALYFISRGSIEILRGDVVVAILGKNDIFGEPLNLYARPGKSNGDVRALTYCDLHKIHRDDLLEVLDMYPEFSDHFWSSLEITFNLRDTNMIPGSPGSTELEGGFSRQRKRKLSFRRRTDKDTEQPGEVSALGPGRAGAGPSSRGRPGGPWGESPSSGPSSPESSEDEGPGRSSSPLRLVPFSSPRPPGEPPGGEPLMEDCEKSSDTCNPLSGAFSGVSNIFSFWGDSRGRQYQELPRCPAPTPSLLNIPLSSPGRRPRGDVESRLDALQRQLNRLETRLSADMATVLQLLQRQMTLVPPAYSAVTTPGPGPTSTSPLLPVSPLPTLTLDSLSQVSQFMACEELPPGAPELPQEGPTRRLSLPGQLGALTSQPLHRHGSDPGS

**Q.** How did the “hERG current change (%, negative = inhibition) at 1uM” value turn out when `COc1ccc(CCNC(=O)c2ccc(NS(=O)(=O)c3ccc4[nH]c(=O)[nH]c4c3)cc2)cc1OC` was run?
**A.** 12.7%

**Q.** For `CC(=N)c1c(O)c2ccccc2oc1=O`, which “hERG current change (%, negative = inhibition) at 1uM” value is on record?
**A.** 8.97%

**Q.** For `CC(C)c1ccc(CNc2nnnn2C)cc1`, which “hERG current change (%, negative = inhibition) at 1uM” value is on record?
**A.** 12.3%

**Q.** `CCn1c(NC(=O)c2ccccc2)nc2ccccc21` was tested. Which “hERG current change (%, negative = inhibition) at 1uM” value did it give?
**A.** 11.3%

**Q.** For `Cc1ccc2c(c1)c(C)c(C)n2CC(O)CN1CCOCC1.Cl` (stereo not drawn), which “hERG current change (%, negative = inhibition) at 1uM” value is on record?
**A.** 15.4%

**Q.** For `COc1ccc(C(=O)NC(=S)NNC(=O)COc2ccccc2)cc1`, which “hERG current change (%, negative = inhibition) at 1uM” value is on record?
**A.** 2.85%

**Q.** Which “hERG current change (%, negative = inhibition) at 1uM” value does the source give for `O=C(CN1C(=O)S/C(=C/c2cc(Br)cs2)C1=O)N1CCOCC1` here?
**A.** -1.05%

**Q.** With `Cc1ccc(O)c(C2=Nc3ccccc3N=C(c3cccc([N+](=O)[O-])c3)C2)c1` as the compound, how does the “hERG current change (%, negative = inhibition) at 1uM” value read?
**A.** 13.8%

**Q.** Which “hERG current change (%, negative = inhibition) at 1uM” value does the source give for `Cc1sc2ncnc(N3CCC(C(=O)Nc4nc5ccc(Cl)cc5s4)CC3)c2c1C` here?
**A.** 12.6%

**Q.** Which “hERG current change (%, negative = inhibition) at 1uM” value does the source give for `COC(=O)CSc1nc(-c2ccccc2)nc2ccc(F)cc12` here?
**A.** -2.67%

**Q.** Which “hERG current change (%, negative = inhibition) at 1uM” value does the source give for `CCN1CCN(C(=O)C2CCCN(c3ncnc4c3nc3n4CCCCC3)C2)CC1` (stereo not drawn) here?
**A.** 17.4%

**Q.** `Cc1nnc(SCc2c(Cl)cccc2[N+](=O)[O-])s1` was tested. Which “hERG current change (%, negative = inhibition) at 1uM” value did it give?
**A.** 3.96%

**Q.** With `O=C(CCc1nc2ccccc2s1)OCC(=O)c1ccc[nH]1` as the compound, how does the “hERG current change (%, negative = inhibition) at 1uM” value read?
**A.** 12.9%

**Q.** Which “hERG current change (%, negative = inhibition) at 1uM” value does the source give for `CC(C)COC(=O)NCCOC(=O)Nc1cccc(Cl)c1` here?
**A.** 11.6%

**Q.** With `Cc1nc2ccc(NC(=O)c3nn(C(C)C)c(=O)c4ccccc34)cc2s1` as the compound, how does the “hERG current change (%, negative = inhibition) at 1uM” value read?
**A.** 20.2%

**Q.** How did the “hERG current change (%, negative = inhibition) at 1uM” value turn out when `CN1CCN(C(=O)CCn2nc(-c3ccccc3)c3ccccc3c2=O)CC1` was run?
**A.** 7.83%

**Q.** For `O=C1CC(c2ccccc2Cl)CC(O)=C1C=Nc1ccccc1` (stereo not drawn), which “hERG current change (%, negative = inhibition) at 1uM” value is on record?
**A.** 15.8%

**Q.** For `Cc1noc(C)c1COc1ccccc1C(=O)N(C)CC(=O)Nc1ccc(F)c(F)c1F`, which “hERG current change (%, negative = inhibition) at 1uM” value is on record?
**A.** 2.63%

**Q.** With `CCOc1ccc(NS(=O)(=O)c2ccc(NC(=S)NC(=O)CC(C)C)cc2)cc1` as the compound, how does the “hERG current change (%, negative = inhibition) at 1uM” value read?
**A.** 11.5%

**Q.** With `CN(Cc1nccs1)C(=O)c1ccc(OC2CCN(CCc3ccccc3)CC2)cc1` as the compound, how does the “hERG current change (%, negative = inhibition) at 1uM” value read?
**A.** -24.7%

**Q.** `Cc1ccc(NC(=O)c2cccc(S(=O)(=O)N(C)C3CCCCC3)c2)nc1` was tested. Which “hERG current change (%, negative = inhibition) at 1uM” value did it give?
**A.** -4.71%

**Q.** Which “hERG current change (%, negative = inhibition) at 1uM” value does the source give for `CCN(CC)S(=O)(=O)c1ccc(OCC(=O)NC(=O)Cc2ccccc2)c([N+](=O)[O-])c1` here?
**A.** 1.75%

**Q.** How did the “hERG current change (%, negative = inhibition) at 1uM” value turn out when `CC(=O)C1C(c2cccc(F)c2)c2c(n[nH]c2C)CC1(C)O` (stereo not drawn) was run?
**A.** 14.1%

**Q.** With `CCN(C(C)=O)c1nc(CSc2nnc(NC(C)C)s2)cs1` as the compound, how does the “hERG current change (%, negative = inhibition) at 1uM” value read?
**A.** 0.121%
